Some of the results follow. These are noisy estimates, calculated here from bound and input reads.
Target: T1, Pho4 (S. cerevisiae) (UniProt P07270)
T1 sequence: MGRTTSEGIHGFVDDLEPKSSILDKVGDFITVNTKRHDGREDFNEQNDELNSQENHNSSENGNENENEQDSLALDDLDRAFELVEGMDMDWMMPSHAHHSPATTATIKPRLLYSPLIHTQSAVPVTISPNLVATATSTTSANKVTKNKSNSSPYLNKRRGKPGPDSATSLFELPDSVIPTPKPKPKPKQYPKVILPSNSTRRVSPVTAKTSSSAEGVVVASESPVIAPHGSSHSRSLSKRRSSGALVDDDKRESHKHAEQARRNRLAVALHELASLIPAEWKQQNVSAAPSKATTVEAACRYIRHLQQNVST
Experiment: relative binding free energy (BET-seq); higher = weaker binding
Conditions: reference: library average

| Sequence | relative binding free energy |
| --- | --- |
| GAATTCACGTGGGCGT | 1.13 kJ/mol |
| CGGTGCACGTGGACGG | -0.167 kJ/mol |
| GATGTCACGTGATGGC | 1.34 kJ/mol |
| TTGTTCACGTGACGGG | 2.09 kJ/mol |
| AGTGGCACGTGTTAGG | -0.293 kJ/mol |
| TGGCGCACGTGGGGCT | -0.669 kJ/mol |
| TTGAACACGTGGCGGT | 0.167 kJ/mol |
| GTAGACACGTGTAGCG | 0.209 kJ/mol |
| ACGGGCACGTGTTAGG | -0.628 kJ/mol |
| AGGGCCACGTGAAAGG | 0.92 kJ/mol |
| GAGTGCACGTGGGGCT | -0.502 kJ/mol |
| CGTTGCACGTGGTTAG | -0.418 kJ/mol |
| AGCATCACGTGGTGTA | 0.0418 kJ/mol |
| TAGGGCACGTGAAATT | 1.21 kJ/mol |
| AGGGTCACGTGGTGAC | -0.0418 kJ/mol |
| GGGGTCACGTGACTTT | 1.05 kJ/mol |
| ATGCGCACGTGGTCGT | -1 kJ/mol |
| GTTTCCACGTGTGGTT | 1.26 kJ/mol |
| GTCGTCACGTGAAATG | 1.55 kJ/mol |
| ATTGACACGTGGGGTG | -0.879 kJ/mol |
| ACTGTCACGTGAGTTG | 1.09 kJ/mol |
| AAGTACACGTGTAAGT | 1.09 kJ/mol |
| TTATACACGTGGTACG | -0.502 kJ/mol |

| Sequence | relative binding free energy |
| --- | --- |
| GGTAGCACGTGGCTTG | -0.167 kJ/mol |
| GCCGGCACGTGTGTGT | -0.753 kJ/mol |
| GATGTCACGTGGCGGA | 0.418 kJ/mol |
| AGAGTCACGTGCAGGT | 0.46 kJ/mol |
| TCTCTCACGTGATGGT | 0.962 kJ/mol |
| AGATGCACGTGGCGGA | -0.46 kJ/mol |
| TAAGTCACGTGGCATG | -0.0418 kJ/mol |
| TGGGCCACGTGGACGT | -0.251 kJ/mol |
| TGTCGCACGTGTGTGG | -0.502 kJ/mol |
| GCAGGCACGTGGAGGA | -0.628 kJ/mol |
| GATGTCACGTGCGTAG | 0.377 kJ/mol |
| GTTAACACGTGGTGCG | -0.251 kJ/mol |
| CTCATCACGTGGGGTT | -0.126 kJ/mol |
| TGCGACACGTGATGGA | 1 kJ/mol |
| TGAGTCACGTGTTGTC | 0.795 kJ/mol |
| TTAGTCACGTGTGTGA | 0.502 kJ/mol |
| TGGAGCACGTGTTATC | -0.251 kJ/mol |
| TAGTTCACGTGACAGG | 1.13 kJ/mol |
| TATAACACGTGGACGG | 0.544 kJ/mol |
| CGGGACACGTGATGTT | 0.628 kJ/mol |
| ATTGTCACGTGTGCTC | 0.628 kJ/mol |
| ATAACCACGTGGGGGG | -0.544 kJ/mol |
| GGTCGCACGTGCTGGT | -0.628 kJ/mol |

| Sequence | relative binding free energy |
| --- | --- |
| TTATGCACGTGTTTGT | -0.293 kJ/mol |
| GTGATCACGTGTTTCG | 1.09 kJ/mol |
| TGTTACACGTGTGGCA | 0.377 kJ/mol |
| CTTAACACGTGGCAGT | 1.05 kJ/mol |
| ACGGTCACGTGTATGG | 0.209 kJ/mol |
| GGTTGCACGTGTAGGA | 0.418 kJ/mol |
| TGGAACACGTGGTGGC | -0.0837 kJ/mol |
| TAGATCACGTGCAGGG | 0.293 kJ/mol |
| GTAGCCACGTGGGGCG | -0.962 kJ/mol |
| AGGGGCACGTGTAGTT | -0.0418 kJ/mol |
| GCGTTCACGTGGCATG | 1.38 kJ/mol |
| CGTGGCACGTGGTCGG | -0.628 kJ/mol |
| GGTAACACGTGCTTGT | 0.335 kJ/mol |
| GTAATCACGTGCCGGT | 0.92 kJ/mol |
| TTGCACACGTGTAATT | 1 kJ/mol |
| GTGCTCACGTGCGGGC | 0.795 kJ/mol |
| AGTGTCACGTGATGTC | 0.669 kJ/mol |
| GGCATCACGTGGGTAG | 0.628 kJ/mol |
| AGGGGCACGTGGGGTG | -0.962 kJ/mol |
| GGGGTCACGTGTCATG | 0.837 kJ/mol |
| AAGGGCACGTGCGGTC | -0.377 kJ/mol |
| ATGGTCACGTGGTACA | -0.0837 kJ/mol |
| GGCGTCACGTGGGTAA | 0.251 kJ/mol |

| Sequence | relative binding free energy |
| --- | --- |
| GGAGGCACGTGCGGTG | -0.293 kJ/mol |
| GTTTGCACGTGAATCG | 0.586 kJ/mol |
| TGGGTCACGTGGATTA | 0.628 kJ/mol |
| GCGGACACGTGAGGTG | 0.502 kJ/mol |
| TTGGTCACGTGTAGCA | 0 kJ/mol |
| TACGTCACGTGTTATA | 0.167 kJ/mol |
| GTATTCACGTGTCAAT | 0.962 kJ/mol |
| TCTCACACGTGGGGTG | -0.418 kJ/mol |
| GACGCCACGTGGGGGG | -1.21 kJ/mol |
| CGATGCACGTGAGGTA | 1.05 kJ/mol |
| TAGGGCACGTGTGGAG | -0.167 kJ/mol |
| CACGGCACGTGGTGAG | 0.293 kJ/mol |
| ATGTTCACGTGTGTTG | 0.879 kJ/mol |
| TGTATCACGTGGAGTA | 0.167 kJ/mol |
| GGCTTCACGTGCGTTG | 1.09 kJ/mol |
| TTTGTCACGTGAAACG | 1.17 kJ/mol |
| TGTTACACGTGTCTAT | -0.0418 kJ/mol |
| TGTGTCACGTGTACAG | -0.0418 kJ/mol |
| TTGCTCACGTGGAGGA | 0.753 kJ/mol |
| GTTTACACGTGATGAG | 1.05 kJ/mol |
| GGAGTCACGTGCACGG | 0.837 kJ/mol |
| TGGCACACGTGATGAT | 1.3 kJ/mol |
| GCGGTCACGTGATTTG | 1.34 kJ/mol |

| Sequence | relative binding free energy |
| --- | --- |
| TGTTACACGTGAAAGA | 1.55 kJ/mol |
| GAGAGCACGTGGCGTT | -0.502 kJ/mol |
| GCTGTCACGTGGATGT | 0.879 kJ/mol |
| GGTAACACGTGGTATG | -0.251 kJ/mol |
| TGTCGCACGTGGGTTT | -0.879 kJ/mol |
| TGGGGCACGTGTGAAC | -0.293 kJ/mol |
| GGCAGCACGTGATGGT | 0.502 kJ/mol |
| CGTGGCACGTGCGTAT | -0.628 kJ/mol |
| GTATGCACGTGGGGGG | -0.544 kJ/mol |
| AACGGCACGTGGGTGA | -1.17 kJ/mol |
| ATGGTCACGTGAAGGT | 0.92 kJ/mol |
| CTGATCACGTGTGATT | 1.26 kJ/mol |
| AATGACACGTGAATGT | 0.753 kJ/mol |
| CAAGGCACGTGGTTTG | -0.669 kJ/mol |
| AGGATCACGTGGGGCT | 0 kJ/mol |
| TTGGGCACGTGAGTCA | 0.628 kJ/mol |
| GCGCTCACGTGGGTCG | 1.05 kJ/mol |
| TGTGGCACGTGTCGGG | -0.293 kJ/mol |
| AGTGGCACGTGCGATT | -0.753 kJ/mol |
| TAAAGCACGTGTGGAT | -0.126 kJ/mol |
| AAGGTCACGTGAAGGT | 1.09 kJ/mol |
| TTTATCACGTGTTTCG | 0.795 kJ/mol |
| AGTTGCACGTGTTCGG | -0.0418 kJ/mol |
